Reference: the supplement of paper PMC3334620
Over roughly 33,000 sequences, “E-score (-0.5 to 0.5)” has its median near -0.056; the highest 2% begin near 0.38. The list shows a part of the results.

Each sequence was assayed against Stb4 (UniProt P50104) (assay: PBM E-score (8-mer binding enrichment) (E-score (-0.5 to 0.5)); higher = stronger / more preferred TF binding; most listed sequences are background and not binding sites). Details: protein concentration: 200 nM; construct: GST-DNA-binding domain.
Procedure, shortened: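 PURExpress in vitro transcription/translation supplied GST-tagged yeast transcription factors, either full-length or DNA-binding domain. Applied at about 100-200 nM to universal all-10-mer Agilent arrays double-stranded by primer extension, the bound protein was detected with fluorescent anti-GST. E-scores, modified Wilcoxon-Mann-Whitney statistics, were given by the Universal PBM Analysis Suite to ungapped eight-base words pooled with their reverse complements after masliner normalisation.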

Row | Sequence | PBM E-score
1 | AGTAAGAC | -0.27
2 | GTACGAGA | -0.0312
3 | TCAGATCA | -0.235
4 | ACATGACC | -0.0942
5 | GGTTAAGA | -0.0248
6 | ACGCAGAG | -0.234
7 | CAGGCGAC | -0.0912
8 | AATGCTAA | -0.0473
9 | AGCAAAGG | -0.175
10 | GGCGATTA | 0.124
11 | AGTGTGGG | -0.0891
12 | GCTCCTCA | -0.0987
13 | ATAATTTC | 0.092
14 | AGTCAGTA | 0.0306
15 | GTGAGACA | 0.0391
16 | ATCCTATC | -0.0255
17 | GCCAAACC | 0.0652
18 | ATAGGAAA | -0.0283
19 | AGTCCTTC | -0.0651
20 | CCGAAGAA | 0.402
21 | ACGAACCC | 0.123
22 | TATACTCA | -0.174
23 | ACTCAACC | -0.0648
24 | GCCGGCCA | 0.264
25 | ACCCCAAT | -0.207

Row | Sequence | PBM E-score
26 | GAGCTAAC | 0.13
27 | AGTCAGTC | -0.166
28 | AATTCCGG | 0.358
29 | CCCATCCA | -0.151
30 | CGATGCCG | 0.263
31 | CGAGCGGC | 0.272
32 | CAAAGCAA | -0.0355
33 | AGTGCTAC | -0.233
34 | CAAGCTGC | -0.129
35 | CCAAGGAC | -0.18
36 | CAATAACA | -0.101
37 | AGAATTGC | 0.0152
38 | TGAGCAAA | -0.0867
39 | AGAACGCA | -0.176
40 | TCGATCAA | -0.179
41 | AGTTGACA | -0.174
42 | ACCGCATA | 0.0903
43 | CCGGCGTC | 0.251
44 | CTCGCGTC | -0.0112
45 | CAATATAC | -0.0523
46 | ACACCGAT | 0.00608
47 | ACAGACAC | -0.0573
48 | GCTCATCA | -0.0769
49 | CCTACATC | -0.0198
50 | GCCATCCC | -0.0258

Row | Sequence | PBM E-score
51 | CGTGCTTA | -0.0565
52 | ACTATTCT | -0.076
53 | ATGGTCCA | -0.00392
54 | ATAAGGTG | -0.0667
55 | GACATCGC | 0.136
56 | TCGGACAA | 0.352
57 | TTAGATAA | -0.126
58 | CGTGCATA | -0.0567
59 | GAATTATC | -0.0405
60 | CCCCATCC | 0.195
61 | CACAAAAC | -0.0837
62 | AATCACGA | -0.084
63 | CGGTTTCC | 0.309
64 | CAACAGTC | -0.0801
65 | CTCGTATC | -0.184
66 | AGGTACAT | -0.185
67 | CCCTAGGA | -0.129
68 | TCTGTCAA | -0.139
69 | CTGTCTGA | -0.117
70 | ATGTCCGC | -0.00468
71 | CTCGTGCA | -0.0534
72 | CGGAATCC | 0.324
73 | CGCGATAC | -0.0174
74 | AATCCATA | -0.085
75 | GCTTACTA | -0.15

Row | Sequence | PBM E-score
76 | ACAACGGG | 0.0871
77 | CCACGTCG | 0.0984
78 | AGAATCAC | 0.0235
79 | CCAGGCTA | -0.289
80 | CGACTAGA | -0.0326
81 | ACTCACCG | -0.0421
82 | ACCAGGAC | -0.0487
83 | ACAAGAAA | 0.0949
84 | AGAATGAG | -0.25
85 | AGGCGAGA | -0.25
86 | CGTAGGAC | 0.00157
87 | CCTTTCTA | -0.14
88 | GACACAAA | 0.0254
89 | CAGGCTCG | 0.08
90 | TCACGTGA | -0.0301
91 | CTAACTAC | 0.00324
92 | GTCCCAAA | -0.205
93 | GCGACTCA | -0.166
94 | GGAACAAA | 0.234
95 | GAAAATTA | 0.0036
96 | CATTTGAC | -0.192
97 | GTAGGACA | 0.0584
98 | CCGACGGA | 0.404
99 | ACGGCAAT | 0.203
100 | CTTGAGCA | -0.336

Row | Sequence | PBM E-score
101 | ACAATGGG | -0.0175
102 | GCGCTCAC | -0.243
103 | AGTATAAA | 0.216
104 | CGTCTGTA | -0.0202
105 | AGGATGAA | -0.0759
106 | ATGGGCAC | -0.0765
107 | GAGCGGGC | 0.0332
108 | CTAGGACC | -0.13
109 | AGTAGAGA | -0.173
110 | CCCGACAA | 0.3
111 | CTCGGTAC | 0.383
112 | TACCGGAA | 0.394
113 | CCCGCGTA | 0.15
114 | ATCTGTTG | -0.261
115 | TGAGACCA | -0.274
116 | CACGTTAA | -0.193
117 | AGCTGCGG | 0.0958
118 | GCGCTATA | -0.0959
119 | ACAGATCG | -0.0736
120 | CTGCACGC | -0.224
121 | AAGCCTAG | -0.115
122 | AAAGCTCA | -0.202
123 | AGACAATC | 0.0448
124 | CTTAACAA | -0.0743
125 | GAAACCCA | 0.0558

Row | Sequence | PBM E-score
126 | AGTCCCGG | 0.304
127 | CGACGCTA | 0.0503
128 | CTATATGC | -0.0778
129 | CCGATAAG | 0.269
130 | GATCTAGC | -0.134
131 | AGCCGAGG | 0.437
132 | AATTTGAA | 0.09
133 | CTAGTATC | 0.0932
134 | ACATGTTA | -0.0974
135 | AACATACT | -0.131
136 | TAACACCA | -0.097
137 | CATAAGCA | -0.211
138 | GCTTATAA | 0.0123
139 | ACCGCAGA | -0.0578
140 | TCTCGAGA | -0.147
141 | AGATCAAT | -0.168
142 | AGGTCTAT | -0.22
143 | TACGCGCA | 0.0889
144 | AATACTCA | 0.0395
145 | ACGACAGT | -0.256
146 | GTCCCAGA | -0.15
147 | AGTCTGGC | -0.212
148 | CGAACATC | 0.247
149 | AAGGCTGG | -0.342
150 | CCCAAAAG | -0.0453

Row | Sequence | PBM E-score
151 | CTCACGAC | -0.305
152 | AGTGGAGA | -0.11
153 | ATAGGGGG | -0.0513
154 | ATAGTGGC | -0.247
155 | AGGTGTGC | -0.0649
156 | ACATTATG | 0.0108
157 | AGCCTTAG | -0.182
158 | GATTGAAA | -0.0919
159 | CCTCAGAG | -0.129
160 | CCCGTGCA | 0.148
161 | TTCCCAAA | -0.234
162 | CAACGCCA | -0.175
163 | CATGCTGA | -0.159
164 | GCCCTATA | -0.0473
165 | ATCCGGCC | 0.394
166 | CTTGACAC | -0.146
167 | ACGTGCGC | -0.0595
168 | TAAAAAGA | -0.0631
169 | AAGGAACG | -0.00649
170 | ATCATACG | -0.126
171 | AGCCGCCG | 0.287
172 | ATACTGAA | -0.119
